Data from the supplement of paper PMC10185492.
The list shows a part of the results. Values come from read counts of a selection and are noisy.

Test system: SARS-CoV-2 3CLpro (nsp5)
Assay: substrate phage enrichment score (protease-eluted vs HEPES control, +1 offset) (ratio); higher = better cleaved substrate
Conditions: selection round: 4; protease elution time: 15 min
Procedure: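 Random heptapeptide substrate phage display (M13 pIII fusion, heptapeptide between an N-terminal biotinylated AviTag GLNDIFEAQKIEWHE and pIII; phages immobilised on streptavidin) eluted by cleavage with 50 nM protease in 20 mM HEPES at 37 °C. Selected phages were NGS sequenced, and the enrichment score is (reads in protease sample + 1)/(reads in HEPES blank-selection control + 1).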

| Substance | substrate phage enrichment score |
| --- | --- |
| TGWRYGK | 0.087 |
| PNLPTGV | > 26 |
| VPMKGIN | 0.471 |
| ATAHHHH | 0.624 |
| CRGLATL | 5.75 |
| CSAPVML | 1.44 |
| PDHGCVT | 23.2 |
| DRETMQH | 2 |
| LQHDKQR | 0.125 |
| ATLNHLE | 19 |
| ASHPWCL | 6 |
| FDRAPTV | 3.17 |
| MAPSNPS | 0.2 |
| RDAMSSR | > 28 |
| LDAAAHH | 6.33 |
| PGKTLLQ | 11 |
| QNTMPKE | 3 |
| PLFQAEF | > 43 |
| MRPHIII | 0.754 |
| GLTSAPY | > 27 |
| CLPSLQG | 10 |
| NQHPMFR | > 25 |
| LMYDGFR | > 22 |

| Substance | substrate phage enrichment score |
| --- | --- |
| AHEGSSR | > 28 |
| ADRQNCK | 1.44 |
| RRPTSCQ | > 34 |
| CPPTKDR | 3.57 |
| HVTEPGM | > 23 |
| SLQGGSA | 0.444 |
| RSKLQCQ | > 61 |
| TTKPSAR | 1.64 |
| GLCHGQA | 1.67 |
| GWQCDLR | 1.4 |
| CTGLSKM | > 135 |
| NQPLGAG | 1.82 |
| ANDATYG | > 72 |
| RTKTQVS | > 30 |
| PIDRHWQ | 1.55 |
| QWTPYQQ | > 53 |
| HHTPPTR | > 27 |
| IPQEVNP | > 22 |
| ELSSYLQ | > 74 |
| APQALLQ | > 49 |
| SVSLQGG | > 25 |
| TSTWLQN | > 84 |
| FGAQPSR | 4.5 |

| Substance | substrate phage enrichment score |
| --- | --- |
| SPSVSLH | > 24 |
| NRHGNYW | 10.5 |
| SNEAAHH | 14.2 |
| SPAWQTH | 3.67 |
| HQALCPV | 1.02 |
| DVPEVAL | 2.3 |
| LRSWRSN | 1.27 |
| DLSAELQ | > 65 |
| RGRLCRV | 10.5 |
| CRAAAHH | 0.818 |
| AYHPQQS | > 26 |
| GYRHGAC | 2.65 |
| LTRLQSE | 60.2 |
| KGSVVLH | > 51 |
| VSSSPVT | 0.771 |
| LKKCLVP | 2.43 |
| NCFPSER | > 26 |
| RDTRPLG | 0.333 |
| FRVVVRP | 1.38 |
| NRPSQLR | 0.867 |
| AQNNSHR | 2.52 |
| NCAQDNR | > 26 |
| TNKFDRN | 0.1 |

| Substance | substrate phage enrichment score |
| --- | --- |
| PRNVRLQ | > 80 |
| MTTGNPV | 9.89 |
| TREESNQ | 0.837 |
| TGVTQAA | > 33 |
| KAVRCWT | > 21 |
| TECSSYG | > 26 |
| WSLLQSN | > 45 |
| ESRTCCA | 2.6 |
| KHDAAFQ | > 26 |
| MSQTSRE | > 22 |
| HCRCITS | 2.25 |
| MTPHTKQ | > 30 |
| SSLTQGV | > 43 |
| PLWSVSG | 0.375 |
| NKNSPLR | 3.5 |
| EQDGAQN | > 23 |
| PPVKNPR | 1.76 |
| SVGKLKN | 1.78 |
| TNGAMPA | > 23 |
| IYRDGWQ | > 24 |
| IHTEVYR | > 26 |
| DITHQAE | 3.5 |
| ASQTIHK | 0.8 |

| Substance | substrate phage enrichment score |
| --- | --- |
| TSKPIAA | 3.43 |
| NKPGLTS | > 123 |
| CTEWQGH | 0.308 |
| RQLMEKP | 8.43 |
| ESAAHHH | 0.4 |
| PAPIHFR | > 92 |
| PSSIHRE | > 28 |
| CTMSSEH | 2.1 |
| SMPCDLR | 0.625 |
| YAQYPTG | 7 |
| QPESCTW | 0.3 |
| AREKSTW | 2.46 |
| SCINKNA | > 24 |
| YGAKNVP | > 24 |
| IESPNNR | 0.5 |
| ASVGMQQ | 1.4 |
| QHTEKNR | > 25 |
| KALDTTV | 10.3 |
| MNCEWPV | 0.24 |
| VLSMPVH | > 422 |
| GPAAHHH | 0.38 |
| TCLSHGY | 4 |
| WTRLQGN | > 47 |

| Substance | substrate phage enrichment score |
| --- | --- |
| VSTTEPR | 1.3 |
| ALYFQGG | 1.62 |
| AHPPVHP | > 21 |
| SSETQES | 1 |
| ERHCRGE | 3.7 |
| NRKSNLQ | > 30 |
| PVSPTSA | 0.143 |
| CILQALG | > 46 |
| CPVSLVR | 1.63 |
| AETTTMH | > 63 |
| GGARHDG | 2.43 |
| SAAANQH | 1 |
| TSLQSGS | 104 |
| CAHDVLR | > 34 |
| QQQPTIR | > 36 |
| SHGKVRV | 2.89 |
| TWSPKSG | 1.78 |
| AAPEILN | 0.643 |
| SVLQCRP | > 21 |
| GQSMPAG | > 41 |
| VAENDSP | 1.42 |
| QKHLENG | 0.722 |
| PMGPESH | > 29 |

| Substance | substrate phage enrichment score |
| --- | --- |
| VRQEPSE | 1.9 |
| VLSPMDD | 3.67 |
| ANSMYAD | 5.25 |
| HIPLTLG | 29.5 |
| KSRGGSA | 0.143 |
| SKNRLAE | > 21 |
| HLNFQGG | 0.506 |
| DMAAHHH | 0.353 |
| TRNSPSQ | > 32 |
| WCMPYAT | > 47 |
| SPAAEMS | 0.273 |
| STIDNVR | 1.24 |
| SPGIVES | 0.824 |
| GRTAEDR | 1.89 |
| GAMNGRS | 2.29 |
| GLYRGQR | 7.33 |
| PHGCDLY | 1.5 |
| TPAGPNN | 9 |
| VSGEPWV | 0.446 |
| VANSGVT | 0.474 |
| LETTTLQ | > 35 |
| PVLPPAQ | 8.1 |
| PESRQLC | > 24 |

| Substance | substrate phage enrichment score |
| --- | --- |
| YHHHHHG | 1 |
| TRRPDVA | 4.4 |
| RNPMSKA | 1.56 |
| THDPGFE | > 27 |
| TCTELQS | 1.55 |
| RSALTRQ | 6.29 |
| FIYESVG | > 35 |
| ESWGCQR | > 42 |
| MTAAHHH | 1.43 |
| SSSEIRQ | > 235 |
| LLLNSGR | 4 |
| PIVLKCE | > 26 |
| KPTCVLS | 6.5 |
| ESNMLHQ | > 31 |
| CRENPTR | 0.667 |
| AESSKAR | > 62 |
| GYSIQSR | > 31 |
| HAPSISR | 0.16 |
| ENFWGPR | 1.71 |
| QRVTSSV | > 32 |
| RRAPVLQ | 45 |
| IGTYSRQ | 0.706 |
| HLNGPTH | > 25 |
